Assay results taken from PMC4336329 (PLoS ONE, 2015).
The whole screen tested about 310,000 compounds, of which about 14,000 (4.5%) showed an effect of 50% or more. Effects have a minus sign here. The list shows a part of the results.

What follows are compounds tested against human ether-à-go-go-related gene (hERG) potassium channel (human, UniProt Q12809) (assay: primary screen, population patch clamp on CHO cells stably expressing hERG).
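Note: peak tail current of the secondary pulse compared with the same well before compound.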

Sequence of human ether-à-go-go-related gene (hERG) potassium channel (Q12809 whole entry, looked up): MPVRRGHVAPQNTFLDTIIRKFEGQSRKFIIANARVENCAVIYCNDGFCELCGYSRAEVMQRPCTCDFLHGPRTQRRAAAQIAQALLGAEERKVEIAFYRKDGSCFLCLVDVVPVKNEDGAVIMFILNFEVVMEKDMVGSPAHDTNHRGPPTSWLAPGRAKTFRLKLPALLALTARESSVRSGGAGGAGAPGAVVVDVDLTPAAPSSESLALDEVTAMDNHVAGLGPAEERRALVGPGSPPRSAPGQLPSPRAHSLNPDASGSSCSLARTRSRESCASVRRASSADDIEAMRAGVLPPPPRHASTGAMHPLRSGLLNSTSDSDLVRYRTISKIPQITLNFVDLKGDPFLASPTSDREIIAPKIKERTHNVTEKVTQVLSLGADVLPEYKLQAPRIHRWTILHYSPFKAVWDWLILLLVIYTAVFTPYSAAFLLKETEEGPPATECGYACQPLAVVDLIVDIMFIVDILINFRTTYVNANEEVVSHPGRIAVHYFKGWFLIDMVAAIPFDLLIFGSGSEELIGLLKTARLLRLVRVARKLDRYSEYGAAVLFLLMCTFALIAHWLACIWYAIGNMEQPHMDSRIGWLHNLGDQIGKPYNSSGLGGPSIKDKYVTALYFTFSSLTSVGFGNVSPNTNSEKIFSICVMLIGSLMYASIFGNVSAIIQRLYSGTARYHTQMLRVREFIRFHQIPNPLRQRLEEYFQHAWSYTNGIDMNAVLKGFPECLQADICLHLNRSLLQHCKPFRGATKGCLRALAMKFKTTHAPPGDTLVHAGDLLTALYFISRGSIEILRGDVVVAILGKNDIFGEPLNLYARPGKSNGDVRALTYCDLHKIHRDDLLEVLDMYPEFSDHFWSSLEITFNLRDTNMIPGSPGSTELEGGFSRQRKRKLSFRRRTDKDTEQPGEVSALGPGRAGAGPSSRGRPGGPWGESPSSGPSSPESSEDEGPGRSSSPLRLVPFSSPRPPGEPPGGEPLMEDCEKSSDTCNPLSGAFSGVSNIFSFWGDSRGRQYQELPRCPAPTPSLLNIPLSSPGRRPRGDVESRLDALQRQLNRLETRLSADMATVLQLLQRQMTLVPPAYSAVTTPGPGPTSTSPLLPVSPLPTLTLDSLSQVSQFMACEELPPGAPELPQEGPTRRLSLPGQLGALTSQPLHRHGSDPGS

Row | SMILES | hERG current change (%, negative = inhibition) at 10uM [%]
1 | CC(C)CCNC(=O)C12CN(Cc3ccccc3)CC1C(c1cccc([N+](=O)[O-])c1)=NO2 (centres unmarked) | -32.9
2 | Cc1ccc(S(=O)(=O)c2c(N)n(CCCO)c3nc4ccccc4nc23)cc1 | -21.4
3 | COc1ccc(-c2noc(CCC(=O)NCC3CCCO3)n2)cc1 (centres unmarked) | 12.3
4 | COc1ccc(NC(=O)CCNC(=O)Cn2cnc3ccccc3c2=O)cc1OC | 16.1
5 | Cn1cnnc1SCC(=O)N1CCc2ccccc21 | 10.6
6 | CCc1ccccc1C1C(=O)c2ccccc2C1=O | 17.9
7 | Cc1onc(-c2ccccc2)c1C(=O)N1CC(C)OC(C)C1 (centres unmarked) | 4.66
8 | CC(=O)Oc1ccccc1C(=O)Oc1ccccc1C(=O)O | 14.4
9 | N#Cc1ccc(CSc2nnc(NC(=O)CN3C(=O)C4CC=CCC4C3=O)s2)cc1 (centres unmarked) | -20.2
10 | CCOc1ccccc1N1CCN(Cc2ccc(OC)c(OC)c2)CC1 | -69.2
11 | CC(=O)c1ccc(-n2c(SCC(=O)c3c[nH]c4ccccc34)nc3ccccc3c2=O)cc1 | 13.3
12 | O=C(Nc1ccc2c(c1)OCO2)c1cnn2c(C(F)(F)F)cc(-c3ccco3)nc12 | 2.24
13 | CCc1cc2c(=O)n(Cc3ccco3)c(SCC(=O)N(C)C3CCS(=O)(=O)C3)nc2s1 (centres unmarked) | -79.1
14 | CC1CN(c2ccc(NC(=O)c3ccco3)cc2C(=O)O)CC(C)O1 (centres unmarked) | 1.69
15 | COc1cccc(-n2c(Cc3cc(=O)[nH]c(=O)[nH]3)nnc2SCC(=O)Nc2ccccc2)c1 | 4.39
16 | COC(=O)c1c(C)[nH]c(C(=O)C(C)Sc2nnc(-c3cc(OC)c(OC)c(OC)c3)o2)c1C (centres unmarked) | -9.78
17 | C=CCC1(CN2CCCC2=O)C(=O)NC(=O)NC1=O | 12
18 | CCN(CC)C(=O)C(C)N(C#N)c1nc(NC(C)C)nc(NC(C)C)n1 (centres unmarked) | -17.7
19 | Cc1ccc(NS(=O)(=O)c2cc(C(=O)O)ccc2Cl)cc1 | 7.67

Row | SMILES | hERG current change (%, negative = inhibition) at 10uM [%]
20 | CCOC(=O)c1c(NC(=O)CCl)sc(C(=O)N(CC)CC)c1C | -4.98
21 | Cc1ccc(SC(=O)COc2ccc(C)c(C)c2)cc1 | 10.4
22 | COc1cc(/C=N/NC(=O)Cn2cnc3c2c(=O)n(C)c(=O)n3C)cc(OC)c1OC | 11.1
23 | COCCNC(=O)CN1C(=O)/C(=C/c2ccccc2)Oc2ccc(C(C)(C)C)cc21 | 11.8
24 | O=S(=O)(c1ccccc1)N1CCCc2ccccc21 | 2.96
25 | CC(=O)c1cccc(NC(=O)N2CCCC2C(=O)NCc2ccccc2)c1 (centres unmarked) | 15
26 | CSc1cccc(NC(=O)N2CCc3ccc(NC(=O)c4ccccn4)cc3C2)c1 | -25.2
27 | COc1cc2c(cc1NC(=O)COCC(=O)O)oc1ccccc12 | -4.88
28 | O=C(CN1CCN(S(=O)(=O)N2CCOCC2)CC1)Nc1ccc(Cl)c(Cl)c1 | -49.3
29 | CCCCn1nnc(NC(=S)NC(=O)c2ccc(-c3cccc(Cl)c3Cl)o2)n1 | 9.41
30 | CCn1c(SCC(=O)Nc2nc(C)cs2)nnc1C(NC(=O)c1ccccc1Cl)C(C)C (centres unmarked) | -3.6
31 | Cc1ccc(CNC(=O)CN(C)S(=O)(=O)c2cnc[nH]2)cc1 | 3.35
32 | Cc1nc(SCC(=O)c2ccc(F)c(F)c2)[nH]c(=O)c1Oc1ccc(Cl)cc1 | -1.12
33 | Cc1ccc(NC(=O)CSc2nnnn2-c2cccnc2)c(C)c1 | 11.3
34 | COc1ccc(CNc2nc3nc(C)c(Cl)c(C)n3n2)cc1OC | -7.54
35 | O=c1c(-c2ccc([N+](=O)[O-])cc2)coc2c(O)c(O)ccc12 | 25.8
36 | OC1CSc2nc3ccccc3n2C1 (centres unmarked) | 37
37 | O=C(NCc1ccncc1)c1cncc(Br)c1 | 10.1
38 | COc1ccc(NC(=O)C(C)N2C(=O)c3ccccc3S2(=O)=O)c(OC)c1 (centres unmarked) | -9.44

Row | SMILES | hERG current change (%, negative = inhibition) at 10uM [%]
39 | COc1ccc(S(=O)(=O)N2CCC(C(=O)NCc3ccncc3)CC2)cc1Cl | 5.93
40 | Cl.Clc1ccc(OCCCN2CCc3ccccc3C2)c(Br)c1 | -34.8
41 | CCOCCCn1c(=NC(=O)c2cccs2)c(C#N)cc2c(=O)n3cccc(C)c3nc21 | -74.1
42 | CCOC(=O)N1CCC(NS(=O)(=O)c2cc3c(cc2C)NC(=O)CO3)CC1 | -7.84
43 | COc1ccc(CNC(=O)C2CCN(S(=O)(=O)N3CCCC3)CC2)cc1 | 11.4
44 | COc1ccc(OC)c(NC(=O)CC2(CC(=O)O)CCCC2)c1 | 1.81
45 | CCS(=O)(=O)N1Cc2ccccc2CC1C(=O)Nc1cc(S(C)(=O)=O)ccc1Cl (centres unmarked) | 6.67
46 | O=C(NCc1cccnc1)/C(=C\c1ccc(-c2cccc(Cl)c2)o1)S(=O)(=O)c1ccccc1 | -23
47 | CC1(C)CNC(=O)C=C(c2ccccc2)C1 | 9.32
48 | COc1cc2ccccc2nn1 | 13.1
49 | O=C(NCCN1CCN(C(=O)c2ccc(Br)cc2)CC1)c1ccc(Br)cc1 | -71.3
50 | Cc1csc(=O)n1CCC(=O)OCC(=O)Nc1ccc(S(N)(=O)=O)cc1 | -0.642
51 | CC(=O)N1c2ccc(C)cc2C(c2ccccc2)CC1C (centres unmarked) | -20.3
52 | Cc1ccccc1CSc1nnc(CCCCCNC(=O)OC(C)(C)C)o1 | -8.59
53 | O=C(CN1C(=O)c2ccccc2C1=O)NCC(=O)OCC(=O)c1ccc(Br)cc1 | -1.61
54 | CCOC(=O)c1ccc2nc(C(F)(F)F)[nH]c(=O)c2c1 | 7.7
55 | O=C(O)c1cccc(Nc2ccncc2[N+](=O)[O-])c1 | 15.1
56 | O=C(COC(=O)C(O)C(O)C(=O)OCC(=O)c1ccc(C(F)(F)F)cc1)c1ccc(C(F)(F)F)cc1 (centres unmarked) | 15.6
